Measurements taken from patent publication US20210363269A1 (ALX ONCOLOGY, published 2021).

B1: S117 (scFv)
scFv: ETVLTQSPATLSVSPGERATLSCRASQTVGSKLAWHQQKPGQAPRLLIYDATNRATGIPDRFSGSGSGTDFTLTISSLQTEDSAVYYCQQYYYWPPYRFGGGTKVEIKGQSSRSSGGGGSSRGGGSDVQLVESGGGVVRPGESLRLSCAASGFSFSSYAMNWVRQAPGEGLEWVSRINSGGGGTDYAESVKGRFTISRDNSENTLYLQMNSLRAEDTAVYYCAKQYDWNGFFDYWGLGALVTVSSSL[letters of human IgG1 Fc with C220S A231V (EU numbers) and a few adjoining residues left out]
B2: S118 (scFv)
scFv: ETVLTQSPATLSVSPGERATLSCRASQTVGSKLAWHQQKPGQAPRLLIYDASRRATGIPDRFSGSGSGTDFTLTISSLQTEDSAVYYCQQYYYWPPYRFGGGTKVEIKGQSSRSSGGGGSSGGGGSDVQLVESGGGVVRPGESLRLSCAASGFSFSSYAMNWVRQAPGEGLEWVSRINSGGGGTDYAESVKGRFTISRDNSENTLYLQMNSLRAEDTAVYYCAKQYDWNGFFDYWGLGALVTVSSSL[letters of human IgG1 Fc with C220S (EU numbers) and a few adjoining residues left out]
B3: S14 scFv-Fc (scFv)
scFv: AVTQPASVSANLGETVKITCSGDSSYYGWYQQKAPGSAPVTLIYDNDKRPSNIPSRFSGSKSGSTATLTITGVQADDEAVYYCGNEDMNYVGIFGAGTTLTVLGQSSRSSGGGGSSGGGGSMAAVTLDESGGGLQTPGGALSLVCKASGFTFNSYNMGWVRQAPGKGLEFVAGIYSAGGDTSTTYGAAVNGRATISRDNGQSTVRLQLNNLRAEDTGIYFCAKAAGGCTAHNCDAYIADSIDAWGHGTEVIVSSSL[letters of human IgG1 Fc with C220S (EU numbers) and a few adjoining residues left out]
B4: S123 scFv-Fc (scFv)
scFv: EIVLTQSPGTLSVSPGERVTLTCRASQGIAGKIAWYQQKPGQAPRLLIYDASSRATGIPGRFSGSGSGTEFTLTITSLQSEDFAVYYCQQHYDWSPLTFGGGTKVEIKGQSSRSSGGGGSSGGGGSDVQLVESGGGLVQPGGSLRLSCTASGFTFRNYGMSWVRQAPGEGLEWVSASSGSGSTYYTDSVKGRFTISRDNSKNTLYLQMNSLRAEDTAIYYCAKVTWNNFFDYWGLGTLVTVSSSL[letters of human IgG1 Fc with C220S (EU numbers) and a few adjoining residues left out]
B5: S130 scFv-Fc (scFv)
scFv: EIVLTQSPGTLSVSPGERATLSCRASQNVRSDLAWYQQKLGQAPRLLIYDANTRATDIPDRFSGSGSGTEFTLTISSLQSEDFAVYYCQHYYDWPPVTFGGGTKVEIKGQSSRSSGGGGSSGGGGSDVQLVESGGGVVRPGESLRLSCAASGFTFSNYAMSWVRQAPGEGLEWVSLITTNGDGAYYADSVKGRFTISRDNSKNTLYLQMNSLRAEDTAIYYCAKDGAAHYYDIFFDYWGLGTPVTVSSSL[letters of human IgG1 Fc with C220S (EU numbers) and a few adjoining residues left out]

Experiments:
[1] = molecular target: T1, high affinity SIRP-α D1 variant CV1-3; experiment: SPR, Langmuir fit
T1 chain: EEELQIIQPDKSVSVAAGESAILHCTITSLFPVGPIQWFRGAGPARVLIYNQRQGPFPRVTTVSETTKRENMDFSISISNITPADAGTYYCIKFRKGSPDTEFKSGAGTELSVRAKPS
How it was run: (§1)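 Antibody clones in scFv-Fc format were captured from pre-filtered culture media onto anti-human IgG Fc, amine-coupled (about 4000 RU) on a GLC chip of a ProteOn XPR36 instrument. SIRP analytes were flowed in PBS pH 7.4 with 0.01% Tween-20 at 25° C. Data were double-referenced against interspot and buffer-blank responses. Dissociation rate constants (koff) were derived by fitting a 1:1 Langmuir model.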

[2] = molecular target: T2, human SIRP-α v2 D1 domain (human); experiment: SPR, Langmuir fit
T2 construct: also called human v2
How it was run: as §1

[3] = molecular target: T3, human SIRPγ isoform 1 (human, UniProt Q9P1W8 29-147); experiment: SPR, Langmuir fit
T3 construct: also called SIRPg; sirpg
How it was run: as §1

[4] = molecular target: T4, cynomolgus SIRP-α D1 domain (cyno2) (cynomolgus monkey, UniProt Q5TFQ8 30-148 (human entry), limits assumed); experiment: SPR, Langmuir fit
T4 chain: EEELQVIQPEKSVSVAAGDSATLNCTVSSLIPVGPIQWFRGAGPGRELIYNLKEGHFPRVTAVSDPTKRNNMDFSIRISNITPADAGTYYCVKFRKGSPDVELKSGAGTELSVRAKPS
How it was run: as §1

[5] = molecular target: T5, human SIRP-α v1 D1 domain (human, UniProt P78324 31-149); experiment: SPR, Langmuir fit
T5 construct: also called human v1
How it was run: as §1

[6] = molecular target: T6, cynomolgus SIRP-α D1 domain (cyno1) (cynomolgus monkey, UniProt Q5TFQ8 30-148 (human entry), limits assumed); experiment: SPR, Langmuir fit
T6 chain: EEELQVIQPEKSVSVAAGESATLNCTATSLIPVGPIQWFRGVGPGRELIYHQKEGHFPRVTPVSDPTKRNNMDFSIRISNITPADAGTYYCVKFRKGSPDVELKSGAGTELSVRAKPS
How it was run: as §1

[7] = molecular target: T7, human SIRPβ isoform 1 (human, UniProt O00241 30-148); experiment: SPR, Langmuir fit
T7 construct: also called SIRPb; sirpb1
How it was run: as §1

[8] = molecular target: T8, mouse 129 SIRP-α D1 domain (mouse (129 strain), UniProt P97797 32-150); experiment: SPR
T8 construct: also called m129
T8 chain: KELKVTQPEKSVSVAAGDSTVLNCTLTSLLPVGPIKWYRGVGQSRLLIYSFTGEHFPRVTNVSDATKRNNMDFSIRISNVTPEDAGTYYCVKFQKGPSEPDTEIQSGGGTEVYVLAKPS
How it was run: as §1

[9] = molecular target: T9, C57BL/6 mouse SIRP-α D1 domain (mouse (C57BL/6 strain), UniProt P97797 32-148); experiment: SPR
T9 sequence: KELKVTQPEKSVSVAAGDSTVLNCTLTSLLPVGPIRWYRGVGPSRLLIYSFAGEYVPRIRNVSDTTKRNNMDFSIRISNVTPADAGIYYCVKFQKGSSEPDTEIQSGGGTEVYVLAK
How it was run: as §1

[10] = molecular target: T10, NOD mouse SIRP-α D1 domain (mouse (NOD strain)); experiment: SPR
T10 chain: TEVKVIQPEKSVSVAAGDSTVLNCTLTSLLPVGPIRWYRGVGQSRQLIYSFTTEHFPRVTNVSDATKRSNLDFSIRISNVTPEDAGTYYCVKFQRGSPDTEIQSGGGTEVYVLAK
How it was run: as §1

[11] = molecular target: T11, cynomolgus SIRP-α D1 domain (SEQ ID NO:11) (cynomolgus, UniProt Q5TFQ8 30-148 (human entry), limits assumed); experiment: SPR, captured scFv-Fc, 100 nM analyte
T11 construct: also called cyno1
T11 chain: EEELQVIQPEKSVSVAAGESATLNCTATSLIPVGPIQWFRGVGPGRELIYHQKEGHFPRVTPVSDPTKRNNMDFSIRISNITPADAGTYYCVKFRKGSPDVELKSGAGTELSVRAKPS

[12] = molecular target: T12, C57BL/6 mouse SIRP-α D1 domain (mouse (C57BL/6 strain), UniProt P97797 32-148); experiment: SPR, captured scFv-Fc, 100 nM analyte
T12 sequence: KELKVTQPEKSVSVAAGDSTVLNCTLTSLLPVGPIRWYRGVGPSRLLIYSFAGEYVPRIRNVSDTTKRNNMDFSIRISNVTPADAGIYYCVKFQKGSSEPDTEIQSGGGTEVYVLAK

[13] = molecular target: T13, mouse 129 SIRP-α D1 domain (mouse (129 strain), UniProt P97797 32-150); experiment: SPR, captured scFv-Fc, 100 nM analyte
T13 construct: also called m129
T13 chain: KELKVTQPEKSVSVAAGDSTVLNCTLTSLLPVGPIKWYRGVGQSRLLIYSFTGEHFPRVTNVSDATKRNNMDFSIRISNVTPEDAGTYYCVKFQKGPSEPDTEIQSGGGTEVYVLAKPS

[14] = molecular target: T14, human SIRP-α v1 D1 domain (human, UniProt P78324 31-149); experiment: SPR, captured scFv-Fc, 100 nM analyte
T14 construct: also called human v1; human α v1

[15] = molecular target: T15, cynomolgus SIRP-α D1 domain (SEQ ID NO:12) (cynomolgus, UniProt Q5TFQ8 30-148 (human entry), limits assumed); experiment: SPR, captured scFv-Fc, 100 nM analyte
T15 construct: also called cyno2; Cyno2
T15 chain: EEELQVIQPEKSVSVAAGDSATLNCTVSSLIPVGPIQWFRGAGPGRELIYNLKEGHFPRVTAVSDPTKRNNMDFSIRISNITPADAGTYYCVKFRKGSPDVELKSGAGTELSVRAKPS

[16] = molecular target: T16, high affinity SIRP-α D1 variant CV1-3 (human); experiment: SPR, captured scFv-Fc, 100 nM analyte
T16 chain: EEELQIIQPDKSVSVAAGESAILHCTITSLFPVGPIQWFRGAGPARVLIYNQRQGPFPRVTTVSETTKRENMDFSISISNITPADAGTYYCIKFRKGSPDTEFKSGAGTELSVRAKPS

[17] = molecular target: T17, human SIRPβ isoform 1 (human, UniProt O00241 30-148); experiment: SPR, captured scFv-Fc, 100 nM analyte
T17 construct: also called sirpb1; Sirpb1

[18] = molecular target: T18, human SIRP-α v2 D1 domain (human); experiment: SPR, captured scFv-Fc, 100 nM analyte
T18 construct: also called human v2; human α v2

[19] = molecular target: T19, human SIRPγ isoform 1 (human, UniProt Q9P1W8 29-147); experiment: SPR, captured scFv-Fc, 100 nM analyte
T19 construct: also called sirpg; sirp-g

[20] = molecular target: T20, NOD mouse SIRP-α D1 domain (mouse (NOD strain)); experiment: SPR, captured scFv-Fc, 100 nM analyte
T20 chain: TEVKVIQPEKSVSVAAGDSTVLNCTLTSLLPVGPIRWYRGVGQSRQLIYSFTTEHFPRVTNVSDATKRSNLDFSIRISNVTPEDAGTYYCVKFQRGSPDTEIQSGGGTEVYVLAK

[21] = molecular target: T12, C57BL/6 mouse SIRP-α D1 domain; experiment: SPR, captured scFv-Fc
How it was run: as §1

[22] = molecular target: T13, mouse 129 SIRP-α D1 domain; experiment: SPR, captured scFv-Fc
How it was run: as §1

[23] = molecular target: T18, human SIRP-α v2 D1 domain; experiment: SPR, captured scFv-Fc
How it was run: as §1

[24] = molecular target: T20, NOD mouse SIRP-α D1 domain; experiment: SPR, captured scFv-Fc
How it was run: as §1

[25] = molecular target: T11, cynomolgus SIRP-α D1 domain (SEQ ID …); experiment: SPR, captured scFv-Fc, 100 nM analyte; LB = very low binding
Method: Binding of the antibody clones to various SIRP proteins was determined using surface plasmon resonance (SPR) detection on a ProteOn XPR36 instrument (Bio-Rad, Hercules, Calif.) using phosphate buffered saline (PBS, pH 7.4) supplemented with 0.01% Tween-20 (PBST) as running buffer. The pre-filtered media containing the secreted antibodies was used directly for the assay. First, anti-Human IgG Fc (BR-1008-39, GE Healthcare) was amine-coupled onto a GLC sensor chip to generate the capture surfaces for the antibodies. About 4000 RU per flow cell of immobilized anti-human IgG Fc is achieved. Each clone is screened using the same method as follows.
(1) ‥5-10 uL of pre-filtered media in 10 mM sodium acetate buffer (pH4.5) was injected for 2 mins at 30 ul/min;
The koff rates of binding of each clone to each SIRP analyte were determined using SPR (Table C). The SPR screening conditions have been described herein, and the Koff values were determined using Langmuir kinetic fittings. The CD47 blocking properties (block, non-block, kick-off) are described in the last column of the Table C. Each antibody is identified according to its corresponding SEQ ID NO. SIRP analyte sequences are as follows: CV1-3, SEQ ID NO:18; v1, SEQ ID NO:5; v2, SEQ ID NO:6; cyno1, SEQ ID NO:11; cyno2, SEQ ID NO:12; m129, SEQ ID NO:7; NOD, SEQ ID NO: 8; BL6, SEQ ID NO:9; sirpb1, SEQ ID NO:13; sirpg, SEQ ID NO:15.

Binder	koff [1] [s⁻¹]	koff [2] [s⁻¹]	koff [3] [s⁻¹]	koff [4] [s⁻¹]	koff [5] [s⁻¹]	koff [6] [s⁻¹]	koff [7] [s⁻¹]	binding result [8]	binding result [9]	binding result [10]	koff [11] [s⁻¹]	koff [14] [s⁻¹]	koff [15] [s⁻¹]	koff [16] [s⁻¹]	koff [19] [s⁻¹]	binding result [21]	also measured
B1	0.000275	3.4e-05	4.3e-06	5.92e-05	1.2e-05	1.83e-05	3.54e-05	no binding (tested: Koff > 5 × 10^3 (legend))	no binding (tested: Koff > 5 × 10^3 (legend))	no binding (tested: Koff > 5 × 10^3 (legend))	–	–	–	–	–	–	–
B2	0.000247	4.12e-05	1.13e-05	8.06e-05	9.17e-06	6.97e-05	1.31e-05	no binding (tested: Koff > 5 × 10^3 (legend))	no binding (tested: Koff > 5 × 10^3 (legend))	no binding (tested: Koff > 5 × 10^3 (legend))	–	–	–	–	–	–	–
B3	–	–	–	–	–	–	–	–	–	–	0.000649	5.42e-05	0.000452	0.00333	0.000126	–	koff [12]: 0.0181 s⁻¹; koff [13]: 0.0373 s⁻¹; koff [17]: 6.01e-05 s⁻¹; koff [18]: 7.64e-05 s⁻¹; koff [20]: 0.00498 s⁻¹
B4	–	–	–	–	–	–	–	–	–	–	0.00157	0.00155	0.00154	0.00131	0.00143	no binding (tested: 100 nM)	binding result [22]: no binding (tested: 100 nM); binding result [23]: no binding (tested: 100 nM); binding result [24]: no binding (tested: 100 nM)
B5	–	–	–	–	–	–	–	–	–	–	–	–	–	0.00373	–	no binding (tested: 100 nM)	binding result [25]: binds
